Experimental findings from PubChem BioAssay AID2060898 (Molecular Pharmacology Branch, DTP, NCI, 2025) are described below.

A word on the viability, T/C: it is the ratio of treated to control. For orientation: IC50 means the midpoint of a concentration-inhibition curve.

Certain results were filed several times, with different values. Only these are listed. There may be further records. Values given together are repeats across runs, samples, wells, individuals or studies. Marks such as [2022-09] give the month of the run.

The experiment deals with 616215-338-R-J1-PDC complex spheroid viability. Description: Anticancer human tumor 616215-338-R-J1-PDC patient-derived colon adenocarcinoma cell line growth inhibition [RAS]. The settings on record: for viability, T/C: stronger effect = lower value; for IC50: compound alone. The text has this:
RAS pathway inhibitors in Combinations in Complex Spheroids
A high-throughput screen of multi-cell type tumor spheroids was designed to identify active combinations of RAS pathway inhibitors and targeted small molecules. Complex spheroids include a stromal component modeled by human endothelial cells (HUVEC) and fibroblasts modeled by human mesenchymal stem cells (MSCs). The concentration ranges selected for each drug and investigational agent were based upon clinically achievable concentrations if the clinical Cmax of the agent was known.
Compounds. The drugs and investigational agents: abemaciclib (NSC768073), cobimetinib (NSC768068), divarasib (GDC6063, NSC841802), docetaxel (NSC628503), GDC-1971 (RLY-1971, NSC841576), gemcitabine (NSC613327), inavolisib (NSC800729), ipatasertib (NSC767898), KB-0742 (NSC834161), MRTX-1133 (NSC836407), osimertinib (NSC779217), RMC-4630 (NSC839698), RMC-6236 (NSC851965), RMC-6291 (NSC852671), Ro-3306 (NSC812927), sapanisertib (NSC764658), SN-38 (NSC673596), staurosporine (NSC755774), SY5609 (NSC837396), and tovorafenib (DAY101, NSC766906), were obtained from the National Cancer Institute (NCI) Developmental Therapeutics Program Chemical Repository. The FDA-approved anticancer drug set is available from the NCI Developmental Therapeutics Program. […] The stock solutions were prepared in dimethyl sulfoxide (DMSO, Sigma-Aldrich, St. Louis, MO, cat. D2650) at 800-fold the tested concentration and stored at -70 degrees C prior to their use. All drugs and investigational agents were tested over a range starting from a high concentration at or near the clinical Cmax and decreasing in half-log increments. If the clinical Cmax for an agent had not been determined, the highest concentration tested was 10 microM.
Cell Culture. All cells were maintained in an incubator at 37 degrees C and 5% CO2 with 95% humidity. The PDC lines were cultured according to standard operating procedures established by the NCI PDMR. All PDCs were thawed and cultured in Matrigel-coated flasks prepared with a working solution of 1X Ham's F-12 nutrient mix, without supplementation (Invitrogen, Waltham, MA, cat. 11765054), 100 U/mL penicillin-streptomycin (Invitrogen, cat. 15140122), and 2.5% Matrigel (Corning Inc., Corning, NY, cat. 354248) for the first three passages. The 362531-283-R-J2-PDC and 782815-120-R-J1-PDC lines were cultured in 6C/Colon 1B media, which includes advanced DMEM/F-12 (Thermo Fisher Scientific, cat. 12634028), 10 mM HEPES (Thermo Fisher Scientific, cat. 15630080), 1X GlutaMAX supplement (Thermo Fisher Scientific, cat. 35050061), 0.1 mg/mL primocin (InvivoGen, San Diego, CA, cat. ant-pm-2), 10% defined fetal bovine serum, heat inactivated (HyClone Laboratories Inc., Logan, UT, cat. SH30070.03HI), 50% L-WRN conditioned media (ATCC, cat. CRL-3276), 1.25 mM N-Acetyl-L-cysteine (Sigma-Aldrich, cat. A9165), 10 mM nicotinamide (Sigma-Aldrich, cat. N0636), 1X B-27 supplement (Thermo Fisher Scientific, cat. 17504044), 1X N-2 supplement (Thermo Fisher Scientific, cat. 17502048), 50 ng/mL human EGF (Thermo Fisher Scientific, cat. PHG0311), and 10 microM Y-27632 dihydrochloride (Tocris Bioscience, cat. 1254). The K12877-001-R-J1-PDC line was cultured in 6I media, which includes all 6C/Colon 1B media plus 10 ng/mL human FGF-10 (PeproTech, cat. 100-26), 1 ng/mL human FGF-2 (PeproTech, cat. 100-18B), 1 µM prostaglandin E2 (Tocris Bioscience, cat. 2296), […] hydrocortisone (Sigma-Aldrich, cat. H4001), and […] bovine insulin (Sigma-Aldrich, cat. I6634). The K86415-001-R-J1-PDC line was cultured in 6D media, which includes all 6C/Colon 1B media components minus the L-WRN conditioned media. The 485176-168-R4-J1-PDC was cultured in PANC media, which includes all 6C/Colon 1B media plus 100 ng/mL human FGF-10 (PeproTech, cat. 100-26), 500 nM SB-431542 (Selleckchem, cat. S1067), and 10 nM gastrin (Tocris Bioscience, cat. 3006). […]
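Also: spheroids exposed to agents for seven days before viability readout.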

`CCN1CCN(Cc2ccc(Nc3ncc(F)c(-c4cc(F)c5nc(C)n(C(C)C)c5c4)n3)nc2)CC1`: the viability, T/C (compound alone 0.00316 µM) is 110%, 88.3% [2024-05] and 111%, 118% [2024-06]; the viability, T/C (compound alone 0.316 µM) is 138%, 143% [2024-05] and 125%, 151% [2024-06].

As for `CCc1c2c(nc3ccc(O)cc13)-c1cc3c(c(=O)n1C2)COC(=O)[C@]3(O)CC`, the IC50 was 13.7 nM, 21.9 nM [2024-05] and 7.25 nM, 13.3 nM [2024-06]. Moreover, the viability, T/C (compound alone 0.00949 µM) was 54.7%, 76.4% [2024-05] and 33.7%, 57% [2024-06].

As for `NC1c2ccccc2OC12CCN(c1cnc3c(N4CCCc5ncccc54)n[nH]c3n1)CC2` (centres undefined), the viability, T/C was 95%, 82.9% [2024-05] and 109%, 104% [2024-06] (compound alone 0.1 µM); 47.4%, 65.4% [2024-05] and 79.9%, 75.1% [2024-06] (compound alone 3.16 µM).

With `CC(C)NCC(C(=O)N1CCN(c2ncnc3c2C(C)CC3O)CC1)c1ccc(Cl)cc1` (centres undefined), the IC50 is 9.41 µM, 9.03 µM [2024-05] and > 10 µM, 10 µM [2024-06].

As to `C[C@@H](NC(=O)c1ncnc(N)c1Cl)c1ncc(C(=O)Nc2cc(C(F)(F)F)c(Cl)cn2)s1`, the viability, T/C (compound alone 3.16 µM) is 98.9%, 102% [2024-05] and 82.3%, 112% [2024-06]; the viability, T/C (compound alone 10 µM) was 71.7%, 60.6% [2024-05] and 46.2%, 56.3% [2024-06].
